# Values joined by “and” are separate entries in the source; they are usually repeats but may differ in a detail not shown here. Equal values may be shown once. The campaign covered roughly 270,000 compounds. About 5,800 (2.1%) were called active. Inconclusive means that the source gave no clear call. Such entries were picked first, then a sample of the others. Calls come from the whole dose curve; as a rule, active = well fitted inhibition curve with a large enough effect; inconclusive = small, poorly fitted or top-dose-only effect; inactive = flat fitted curve, though single readings scatter. Where the call is inconclusive, the potency comes from a doubtful curve fit.
# Molecular target: Microtubule-associated protein tau (Homo sapiens) (UniProt P10636)
# UniProt P10636, sequence (P10636 whole entry, looked up): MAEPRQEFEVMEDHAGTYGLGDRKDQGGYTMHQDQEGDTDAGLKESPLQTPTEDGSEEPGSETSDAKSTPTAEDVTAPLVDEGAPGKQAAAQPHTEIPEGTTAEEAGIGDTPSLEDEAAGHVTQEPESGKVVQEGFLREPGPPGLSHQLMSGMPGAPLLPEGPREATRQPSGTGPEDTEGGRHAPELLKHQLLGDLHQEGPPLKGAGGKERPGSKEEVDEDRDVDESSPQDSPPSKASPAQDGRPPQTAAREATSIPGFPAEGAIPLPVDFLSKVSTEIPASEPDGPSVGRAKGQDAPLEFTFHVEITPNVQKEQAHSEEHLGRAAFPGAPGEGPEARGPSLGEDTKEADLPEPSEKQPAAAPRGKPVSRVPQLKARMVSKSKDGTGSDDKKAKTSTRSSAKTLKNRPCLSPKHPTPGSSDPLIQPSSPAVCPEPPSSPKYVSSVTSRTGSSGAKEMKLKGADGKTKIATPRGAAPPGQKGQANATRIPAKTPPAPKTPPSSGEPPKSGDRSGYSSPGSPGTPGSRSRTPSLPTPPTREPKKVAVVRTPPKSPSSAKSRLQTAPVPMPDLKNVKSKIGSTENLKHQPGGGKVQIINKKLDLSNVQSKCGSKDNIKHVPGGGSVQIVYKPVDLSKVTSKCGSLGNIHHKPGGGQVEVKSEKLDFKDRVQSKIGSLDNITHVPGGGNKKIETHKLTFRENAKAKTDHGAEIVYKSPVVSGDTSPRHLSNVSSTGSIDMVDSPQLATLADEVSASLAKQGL
# Experiment: qHTS for Inhibitors of Tau Fibril Formation, Thioflavin T Binding; note: nearly all actives have a fitted effect of over 55% in size
# Details: recombinant tau K18 P301L, heparin-induced fibrillization, ThT fluorescence; series mostly up to 57.4 µM
# Method in brief: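 Fibril formation assay: tau K18 P301L at 15 uM with trace Alexa 594 label, heparin inducer 20 uM, pH 7 sodium acetate buffer, 37 C for 6 hr; endpoint ThT signal.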
# % is set by controls: 0 for no effect and ±100 for the full control effect; potency is the fitted concentration of half-maximal effect; tags give direction and shape of the fitted curve.
Structure (SMILES),Potency,"activity, negative = inhibition"
COC(=O)CN1C(C(=O)c2ccccc2)=C(OC(=O)c2ccc(F)cc2)c2ccccc2S1(=O)=O,"inconclusive: 12.6 µM [inhibitor, partial curve]",–
CCn1c(SCC(=O)Nc2ccc(C)cc2)nnc1-c1ccc(O)cc1,inactive,–
CSc1n[nH]c(=S)n1N,"inconclusive: 25.1 µM [inhibitor, partial curve]",–
Cc1nn(Cc2ccccc2)c2c1C(c1cccc(Cl)c1)C(C#N)=C(N)O2 (stereo not drawn),"inconclusive: 11.2 µM [inhibitor, partial curve]",–
Cc1cc(-c2nn(-c3ccccc3F)cc2CN2CCCC(O)C2)c(C)s1 (stereo not drawn),inactive,–
Cc1cccn2cc(CSc3ccccc3N)nc12,"inconclusive: 15.8 µM [inhibitor, partial curve]",–
CCOC(=O)CSc1nc2sc(C)c(C)c2c(=O)[nH]1,inactive,–
O=C(Nc1nc2c(s1)CN(Cc1ccccc1)CC2)C1CCCC1,"inconclusive: 44.7 µM [inhibitor, single point]",–
CC(=O)c1ccc(NCC2COc3ccccc3O2)c([N+](=O)[O-])c1 (stereo not drawn),"inconclusive: 3.98 µM [inhibitor, partial curve]",–
O=c1[nH]c2cc3c(cc2cc1C(c1nnnn1C1CCCC1)N1CCCc2ccccc21)OCCO3 (stereo not drawn),"inconclusive: 25.1 µM [inhibitor, partial curve]",–
Cc1ccc(-c2nnn3c2nc(NC2CCC(C)CC2)c2ccccc23)cc1 (stereo not drawn),"inconclusive: 6.31 µM [inhibitor, partial curve]",–
O=C(CSc1ncc(-c2ccccc2)[nH]1)Nc1cccc(Br)c1,"inconclusive: 25.1 µM [inhibitor, partial curve]",–
COc1cccc(CC2(CO)CCCN(Cc3ccc(-c4ccco4)cc3)C2)c1 (stereo not drawn),inactive,–
CC[C@H](C)[C@@H](NC(=O)O[C@H]1C(=O)c2cc(OC)ccc2O[C@@H]1c1ccc(OC)c(Br)c1)C(=O)OC,"inconclusive: 44.7 µM [inhibitor, single point]",–
COc1cc(/C=N/Nc2nc(=O)[nH]nc2C)cc([N+](=O)[O-])c1O,active: 14.1 µM,–
Cn1ncc2c(Nc3cccc(C#N)c3)ncnc21,inactive,–
CCc1ccc(-c2nc(CN3CCC(C(=O)NCCN(CC)c4ccccc4)CC3)c(C)o2)cc1,"inconclusive: 17.8 µM [inhibitor, partial curve]",–
O=C(CN1C(=O)COc2ccc(S(=O)(=O)NC3CCCC3)cc21)NCc1ccccc1Cl,inactive,–
COc1ccc(-c2onc(C)c2-c2ccc(C(=O)OC(C)C)o2)c(O)c1,"inconclusive: 3.98 µM [inhibitor, single point]",–
CC(=O)c1sc2nc(-c3ccc(C)cc3)c3c(c2c1N)CCCC3,"inconclusive: 20 µM [inhibitor, partial curve]",–
CC(=O)Nc1ccc(/C(C)=N/Nc2nc(Nc3cccc4ccccc34)nc(N3CCOCC3)n2)cc1,inactive,–
O=C(Nc1ccc(-n2cnnn2)cc1)c1cn2ccccc2n1,"inconclusive: 3.55 µM [inhibitor, partial curve, poor fit]",–
Oc1ccccc1-c1nc(NCC2CCCO2)c2ccccc2n1 (stereo not drawn),"inconclusive: 39.8 µM [inhibitor, single point]",–

Structure (SMILES),Potency,"activity, negative = inhibition"
CC(C)CCCC(C)C1CCC2C3CC(O)[C@@]4(O)CC(O)CC[C@@]4(C)C3CC[C@@]12C (stereo partly drawn),inactive,–
O=C(CCC1COc2ccccc2O1)Nc1ccc(Cl)cn1 (stereo not drawn),"inconclusive: 10 µM [inhibitor, partial curve]",–
CCCOc1ccc(C(=O)NNC(=S)NC(=O)c2cc(-c3ccccc3)nc3ccccc23)cc1,"inconclusive: 14.1 µM [inhibitor, partial curve]",–
CCCNC(=O)c1ccc2c(=O)c(O)c(-c3ccsc3)[nH]c2c1,"inconclusive: 5.62 µM [inhibitor, partial curve, poor fit]",–
COc1cc2c(cc1OC)C(c1ccccc1)N(C(=O)c1ccco1)CC2 (stereo not drawn),"inconclusive: 3.55 µM [inhibitor, partial curve]",–
CC(=O)c1ccc(S(=O)(=O)N2CCCC2)cc1,"inconclusive: 12.6 µM [inhibitor, partial curve]",–
Nc1nnc(CC(=O)N/N=C/c2ccc([N+](=O)[O-])cc2)s1,"inconclusive: 31.6 µM [inhibitor, partial curve, poor fit]",–
O=C(CSc1ccc(-c2ccccc2)nn1)N1CCOCC1,inactive,–
CC1CN(C(=O)N2CCC(C(=O)NCc3ccccc3F)CC2)c2cc(Cl)ccc2O1 (stereo not drawn),inactive,–
CCN1CCN(Cc2ccc(NC(=O)c3ccc(C)c(NC(=O)c4ccc5n[nH]nc5c4)c3)cc2C(F)(F)F)CC1,inactive,–
CC(C)(C)c1ccc(NC(=O)NCc2ccco2)cc1,inactive,–
O=C(Nc1cc(C(F)(F)F)ccc1N1CCOCC1)C1Cc2ccccc2CN1C(=O)c1ccco1 (stereo not drawn),"inconclusive: 28.2 µM [inhibitor, single point]",–
CC1=C(C(=O)OCc2ccccc2)C(C2CCCCC2)NC(=O)N1CCCCCC(=O)O (stereo not drawn),inactive,–
Cc1cc(=O)n2[nH]c(-c3ccco3)nc2n1,inactive,–
Cc1cccc2sc(N(Cc3cccnc3)C(=O)c3ccco3)nc12,"inconclusive: 44.7 µM [inhibitor, single point]",–
Cc1ccc2[nH]cc(C(c3ccccc3)c3ccc(Cl)s3)c2c1 (stereo not drawn),"inconclusive: 8.91 µM [inhibitor, partial curve]",–
Cc1ccc(C(=O)N2CCN(CCc3ccncc3)CC2)cc1,inactive,–
CCCCN(C)C(=O)CSc1nc(NCc2ccc(OC)cc2)c2ccccc2n1,"inconclusive: 15.8 µM [inhibitor, partial curve]",–
CCOC(=O)C1=C(SCC)c2cc3c(n2C1=O)CCCC3,active: 11.2 µM,–
O=C(NNC(=S)Nc1cccc(Cl)c1)c1ccccc1OC(F)F,"inconclusive: 11.2 µM [inhibitor, partial curve]",–
Cc1cccc(C)c1NC(=O)CCCSc1nnc(-c2ccc(Cl)cc2)n1-c1ccccc1,"inconclusive: 17.8 µM [inhibitor, partial curve, poor fit]",–
CC(=O)OCC1OC(c2ccc3c(c2)OCO3)C=CC1OC(C)=O (stereo not drawn),–,inactive: 2.14% [at 11.5 µM]
CCCCCNC(=O)Cc1cc(=O)[nH]c(=O)[nH]1,"inconclusive: 17.8 µM [inhibitor, partial curve]",–

Structure (SMILES),Potency,"activity, negative = inhibition"
CN(C)/C=C/C(=O)c1cccc(Cl)c1,"inconclusive: 28.2 µM [inhibitor, partial curve]",–
COc1ccc(OCC(=O)N/N=C\c2ccco2)cc1,"inconclusive: 31.6 µM [inhibitor, partial curve, poor fit]",–
CCc1c(C(=O)Nc2cc(C)cc(C)c2)[nH]c(C)c1C(C)=O,"inconclusive: 14.1 µM [inhibitor, partial curve]",–
O=C(NCc1ccccc1Cl)c1ccc2c(c1)NC(=O)C(CS(=O)(=O)Cc1ccc(Cl)cc1)N2 (stereo not drawn),"inconclusive: 0.0708 µM [inhibitor, full curve, poor fit]",–
COc1ccccc1-c1nn(CCC(=O)Nc2ccccc2)c2nc(C)cc(C)c12,inactive,–
Cc1cnc(NC(=O)CSc2ncc(-c3ccccc3)n2Cc2ccco2)s1,"inconclusive: 20 µM [inhibitor, partial curve]",–
CCOC(=O)c1c(C)[nH]c(C)c1S(=O)(=O)N1CCCC(C(=O)N2CCN(c3cccc(Cl)c3)CC2)C1 (stereo not drawn),"inconclusive: 31.6 µM [inhibitor, single point]",–
O=C(c1ccco1)c1coc2c1cc(O)c1ccccc12,active: 3.55 µM,–
CCCCN(C(=O)Cc1cccs1)c1nnc(-c2cccnc2)s1,inactive,–
COC(=O)CC1C2(C)CC34OC5(C)O[C@@]6(C7/C(=C(/OC)C(C)C)C(=O)OC(c8ccoc8)[C@@]7(C)C(OC(=O)C(C)C)C(OC)[C@]6(O5)[C@@]13C)C(OC)[C@]4(OC)C2OC(C)=O (stereo partly drawn),"inconclusive: 7.08 µM [inhibitor, partial curve]",–
Cn1cnnc1SC1c2cccc3cccc(c23)C1NS(=O)(=O)c1ccccc1 (stereo not drawn),inactive,–
CSc1ccc(CCNC(=O)CN2C(=O)COc3ccc(S(=O)(=O)N4CCCCCC4)cc32)cc1,inactive,–
COc1ccc(C(=O)NCCc2csc(-c3ccc(Cl)cc3)n2)c(OC)c1,"inconclusive: 15.8 µM [inhibitor, partial curve]",–
COc1ccc(C2OC(=O)CC2C(=O)N2CCN(c3cc(Cl)ccc3C)CC2)cc1OC (stereo not drawn),"inconclusive: 35.5 µM [inhibitor, partial curve, poor fit]",–
CC(C)(C)c1cc(Br)c(O)c(N=Nc2ccc(S(=O)(=O)N3CCOCC3)cc2)c1,"inconclusive: 14.1 µM [inhibitor, partial curve]",–
O=C(O)c1cccc(NS(=O)(=O)c2ccc3c(c2)C(=O)c2ccccc2C3=O)c1,"inconclusive: 10 µM [inhibitor, partial curve]",–
Oc1ccc(NCc2ccccc2OCc2ccccc2)cc1,active: 7.08 µM and active: 14.1 µM,–
Cc1ccc(Nc2cc(C)nc(NCc3ccccc3)n2)cc1,"inconclusive: 39.8 µM [inhibitor, single point]",–
Cn1cccc1/C=N/n1c(-c2ccc(Cl)cc2)n[nH]c1=S,inactive,–
O=C(CC(c1ccccc1)c1ccco1)Nc1nccs1 (stereo not drawn),"inconclusive: 17.8 µM [inhibitor, single point]",–
CSc1ccc(/C=N/Nc2nc(C)cc(=O)[nH]2)cc1,"inconclusive: 31.6 µM [inhibitor, partial curve]",–
COc1ccc(-c2n[nH]c(C)c2-c2cnn(-c3ccccc3)c2)c(O)c1C,"inconclusive: 39.8 µM [inhibitor, single point]",–

# From PubChem BioAssay AID1460 (National Center for Advancing Translational Sciences (NCATS), 2008)
